Measured values reported in PubChem BioAssay AID488969 (Vanderbilt High Throughput Screening Facility, 2010).
In all, about 110,000 compounds were measured (“z-score”: median about -0.1, highest 2% from about 2 on). This is one part of the list. Activity calls are given as the source filed them.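 Rule for the calls: active = z-score in the third read window above 3 or below -3; inactive = the rest.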

The compounds below were run against Metabotropic glutamate receptor 8 (Rattus norvegicus) (UniProt P70579) (assay: mGluR8 Gi/Go-coupled signaling modulation – cell-based, rat, thallium flux, HTS, primary screen (AID 488969)). Settings: HEK293 rat mGluR8, GIRK (G protein-gated inwardly rectifying potassium channel) thallium flux, FluoZin2; at 10 µM; stronger effect = higher value; submaximal glutamate (EC20) added with thallium.
Sequence of UniProt P70579 (P70579 whole entry, looked up): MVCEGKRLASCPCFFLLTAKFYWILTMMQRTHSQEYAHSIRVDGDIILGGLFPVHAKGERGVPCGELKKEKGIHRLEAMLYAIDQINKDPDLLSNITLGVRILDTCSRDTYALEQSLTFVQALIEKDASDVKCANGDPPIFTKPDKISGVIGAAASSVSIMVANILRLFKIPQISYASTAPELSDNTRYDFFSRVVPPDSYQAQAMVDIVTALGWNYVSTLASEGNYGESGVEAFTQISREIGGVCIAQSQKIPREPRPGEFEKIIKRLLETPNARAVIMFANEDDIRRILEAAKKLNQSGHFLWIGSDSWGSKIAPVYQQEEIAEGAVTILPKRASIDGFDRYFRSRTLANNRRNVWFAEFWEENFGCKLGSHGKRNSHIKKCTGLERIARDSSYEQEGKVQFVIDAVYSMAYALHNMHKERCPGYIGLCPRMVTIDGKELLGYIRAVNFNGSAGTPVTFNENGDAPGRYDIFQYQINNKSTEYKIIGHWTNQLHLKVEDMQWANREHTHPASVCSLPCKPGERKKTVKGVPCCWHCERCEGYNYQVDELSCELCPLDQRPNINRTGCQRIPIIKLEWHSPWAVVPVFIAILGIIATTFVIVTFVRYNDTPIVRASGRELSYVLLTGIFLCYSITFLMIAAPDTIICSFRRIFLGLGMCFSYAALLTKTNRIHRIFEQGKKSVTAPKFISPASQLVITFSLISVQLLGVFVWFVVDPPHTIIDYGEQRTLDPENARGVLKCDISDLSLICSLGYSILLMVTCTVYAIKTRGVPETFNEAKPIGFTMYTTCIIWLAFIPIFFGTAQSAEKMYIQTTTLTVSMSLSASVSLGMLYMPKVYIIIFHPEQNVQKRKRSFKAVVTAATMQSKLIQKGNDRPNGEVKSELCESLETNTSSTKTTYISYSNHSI

SMILES | z-score
c1ccc(-c2csc3ncnc(NCCN4CCOCC4)c23)cc1 | 0.0632
CCCCN(C)CCNS(=O)(=O)c1ccc2c(c1)n(C)c(=O)c(=O)n2C | -0.533
CCCCOC(=O)c1ccccc1N1C(=O)C2C3CCC(C3)C2C1=O (stereo not given) | -0.205
O=C(CCCCCn1c(=S)[nH]c2ccc(Br)cc2c1=O)NCC1CCCO1 (stereo not given) | 1.92
Cc1cccc(NC(=O)C2C3CCC4C(CCC32)C4(Cl)Cl)c1 (stereo not given) | -0.281
CC(C)(C)N=C1C([N+](=O)[O-])=CC=C2C1=NC1(CCCCC1)N2O | -0.149
COc1ccc(C)cc1NS(=O)(=O)c1cc(C)ccc1C | -0.0933
CC(=O)Nc1ccc(Oc2cnc3ccccc3n2)cc1 | -0.0432
CCc1nnc(NC(=O)C2CCCCC2)s1 | -0.155
O=C(Nc1ccc2nc[nH]c2c1)c1ccco1 | 0.869
CN1CCN(C2=Cc3ccccc3Sc3cc(F)ccc32)CC1 | 0.561
CC1CCCCC1NC(=O)COC(=O)c1ccc2c(c1Cl)C(=O)c1ccccc1C2=O (stereo not given) | -0.0566
COC(=O)CN1C(=S)N(c2ccc(Cl)cc2)C(=O)C1CC(=O)Nc1ccc(Cl)cc1 (stereo not given) | 0.304
CCC(C)NS(=O)(=O)c1ccc(OCC(=O)NCc2cccnc2)cc1 (stereo not given) | -0.0632
COc1cc(O)oc1C=Nc1ccc(Cl)cc1Cl | -0.0394
O=C(CSc1nnc(-c2cccnc2)o1)c1cc2ccccc2oc1=O | -0.123
OC(CN1CCN(c2ccccn2)CC1)Cn1c2ccc(Cl)cc2c2cc(Cl)ccc21 (stereo not given) | -0.206
CC(/C=C/c1ccc2c(c1)OCO2)=N\NC(=O)COc1ccccc1C | -0.923
CC(=O)Nc1ccc(S(=O)(=O)N2CCN(c3cccc(C)c3C)CC2)cc1 | 0.787
O=C(c1ccccc1)N1CCN(C2C3CC4CC(C3)CC2C4)CC1 (stereo not given) | -0.163
O=c1sc(N2CCN(c3ccccc3F)CC2)nc2ccsc12 | active: -4.43
CCOc1ccc2cc(C#N)c(SCC(=O)N3CCOCC3)nc2c1 | 0.126
Cc1nc2ccccc2c(=O)n1NC(=O)Cc1ccc(Br)cc1 | -0.13
Cn1c(-c2ccc[nH]c2=O)nc2cc(Cl)ccc21 | -0.33
O=C(Oc1ccc2c(c1)CCC2)N1CCOCC1 | -0.618
CCOC(=O)C1CCN(C(=O)Nc2ccc3oc(C)nc3c2)CC1 | 0.732
CCN1C(=O)CC(N2CCC(Nc3ccc(F)cc3)CC2)C1=O (stereo not given) | 0.0123
CC(=O)N1CCN(c2ccc(NCc3ccc(F)cc3)cc2)CC1 | 0.0515

SMILES | z-score
Cc1ccc(/C=C(\C#N)C(=O)Nc2c(C)cccc2C)s1 | -0.0444
CCCc1nnc(SCC(=O)Nc2ccc(OCC)cc2)n1N | -0.0268
COc1ccc(/C=N/Nc2ncnc3sc(C)c(C)c23)cc1 | -0.275
Cc1cc(C)n(-c2nncn2NC(=O)c2ccc(Cl)cc2O)n1 | 2.24
O=C(c1cccs1)C1C(c2ccc(Br)cc2)NC(=S)NC1(O)C(F)(F)F (stereo not given) | -0.3
CCOC(=O)N1CCC(NC(=O)c2ccc3nc(N4CCOCC4)sc3c2)CC1 | -0.434
COC(=O)c1cccc(NC(=O)CSc2nnc(COc3ccccc3)n2C)c1 | -0.736
C=CCO/N=C(\C)c1c(O)c(C)c(-c2ccccc2)n(-c2ccccc2)c1=O | -0.387
CC1CC(C)CN(c2ncc3c(n2)CC(c2ccccc2Cl)CC3=O)C1 (stereo not given) | -0.181
CCC(C)c1ccc(NC(=S)NCc2cccs2)cc1 (stereo not given) | 0.19
COc1ccc(NC(=O)N(CCCN2CCOCC2)Cc2cccnc2)c(OC)c1 | -0.339
N#Cc1c(NC(=O)c2ccncc2)sc2c1CCC2 | -0.0185
CC1CCC(NC(=O)Cn2cc3c(n2)CCCC3)CC1 (stereo not given) | 2.79
CC(=O)Nc1ccc(NC(=O)C(C)Oc2ccccc2F)cc1 (stereo not given) | 0.226
CC1=CC(c2ccc(Cl)cc2)n2nc(N3C(=O)CCC3=O)nc2N1 (stereo not given) | -0.167
O=C(Cn1cnc2c(oc3ccccc32)c1=O)NCc1ccco1 | -0.11
Cc1oc(-c2ccc(Cl)cc2)nc1CN1CCC(C(=O)NCc2ccco2)CC1 | -0.785
O=C(NC1CCCc2ccccc21)C1CCN(S(=O)(=O)c2cccc3nonc23)CC1 (stereo not given) | 0.643
COc1ccc(NC(=O)CC(c2ccc(F)cc2)c2ccc(OC)cc2)cc1 (stereo not given) | -0.576
COC(=O)C1=C(N)Oc2cc(C)[nH]c(=O)c2C1c1cccnc1 (stereo not given) | 0.324
O=[N+]([O-])c1cccc(/C([O-])=C(/C(=S)Nc2cccc3ccccc23)[n+]2ccccc2)c1 | 0.203
CCOC(=O)C1CCN(Cc2cn[nH]c2-c2ccccc2)CC1 | -0.303
COc1ccccc1NC(=S)NNC(=O)c1c(Cl)c(C)nn1C | -0.00139
CC1(C)Cc2c(C#N)c(SCC(=O)c3ccccc3)nc(N3CCOCC3)c2CS1 | 0.105
Cc1snc(S(=O)(=O)Cc2ccccc2Cl)c1C#N | -0.159
CN(C)CCN(C(=O)/C=C/c1cccs1)c1nc2c(F)cc(F)cc2s1 | -0.00668
CCOc1ccc(NC(=O)CCNS(=O)(=O)c2ccc(Br)s2)cc1 | -0.0821
